# Patent US20240269277A1 (Hoffmann-La Roche, published 2024)
# T1: IL-7 receptor (IL-7Ra/common gamma chain) on activated CD4 T cells (human, UniProt P16871 21-459; P31785 23-369)
# T1 sequence (looked up) 1: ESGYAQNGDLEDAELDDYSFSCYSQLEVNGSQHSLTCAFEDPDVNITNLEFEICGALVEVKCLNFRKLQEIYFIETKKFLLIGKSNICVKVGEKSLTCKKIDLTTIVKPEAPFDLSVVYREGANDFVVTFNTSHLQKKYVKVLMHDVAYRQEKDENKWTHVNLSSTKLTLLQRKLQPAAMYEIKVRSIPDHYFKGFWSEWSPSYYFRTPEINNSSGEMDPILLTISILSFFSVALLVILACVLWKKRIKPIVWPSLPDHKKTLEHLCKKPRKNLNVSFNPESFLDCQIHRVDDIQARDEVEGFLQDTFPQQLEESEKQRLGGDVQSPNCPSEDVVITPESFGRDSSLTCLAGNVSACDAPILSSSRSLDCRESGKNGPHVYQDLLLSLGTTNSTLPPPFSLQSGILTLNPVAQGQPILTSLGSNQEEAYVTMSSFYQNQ
# T1 sequence (looked up) 2: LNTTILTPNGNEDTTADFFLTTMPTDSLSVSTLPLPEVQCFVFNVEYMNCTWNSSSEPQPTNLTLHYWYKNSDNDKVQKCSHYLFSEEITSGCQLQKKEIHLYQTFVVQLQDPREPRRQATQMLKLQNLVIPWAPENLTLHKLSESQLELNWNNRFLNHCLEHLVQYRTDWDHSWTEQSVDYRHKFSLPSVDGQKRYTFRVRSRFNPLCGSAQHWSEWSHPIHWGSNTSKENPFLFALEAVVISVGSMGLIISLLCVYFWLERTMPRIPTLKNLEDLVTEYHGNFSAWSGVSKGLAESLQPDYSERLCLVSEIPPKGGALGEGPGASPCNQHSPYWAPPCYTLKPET
# Target: T1, IL-7 receptor (IL-7Ra/common gamma …)
# Test: cell-based or functional assay
row,Binder,Fold reduction in potency as EC50 [PD1^+] / EC50 [PD1^+ PD1(alt)-IL7wt] [fold]
1,PD1(alt)-IL7-VAR18/VAR21 (other) light: DIVLTQSPASLAVSLGQRAAISCRASKGVSTSGYSYLHWYQQKPGQSPKLLIYLASYLESGVPARFSGSGSGTDFTLNIHPVEEEDAATYYCQHSRDLPLTFGTGTKLELKRTVAAPSVFIFPPSDEQLKSGTASVVCLLNNFYPREAKVQWKVDNALQSGNSQESVTEQDSKDSTYSLSSTLTLSKADYEKHKVYACEVTHQGLSSPVTKSFNRGEC heavy 1: QVQLQQPGAELVKPGTSVKLSCKASGYTFTNYYMYWVKQRPGQGLEWIGGINPSNGGTNFNEKFKNKATLTVDSSSSTTYMQLSSLTSEDSAVYYCTRRDYRFDMGFDYWGQGTTLTVSSASTKGPSVFPLAPSSKSTSGGTAALGCLVKDYFPEPVTVSWNSGALTSGVHTFPAVLQSSGLYSLSSVVTVPSSSLGTQTYICNVNHKPSNTKVDKKVEPKSCDKTHTCPPCPAPEAAGGPSVFLFPPKPKDTLMISRTPEVTCVVVDVSHEDPEVKFNWYVDGVEVHNAKTKPREEQYNSTYRVVSVLTVLHQDWLNGKEYKCKVSNKALGAPIEKTISKAKGQPREPQVCTLPPSRDELTKNQVSLSCAVKGFYPSDIAVEWESNGQPENNYKTTPPVLDSDGSFFLVSKLTVDKSRWQQGNVFSCSVMHEALHNRFTQKSLSLSPG heavy 2: QVQLQQPGAELVKPGTSVKLSCKASGYTFTNYYMYWVKQRPGQGLEWIGGINPSNGGTNFNEKFKNKATLTVDSSSSTTYMQLSSLTSEDSAVYYCTRRDYRFDMGFDYWGQGTTLTVSSASTKGPSVFPLAPSSKSTSGGTAALGCLVKDYFPEPVTVSWNSGALTSGVHTFPAVLQSSGLYSLSSVVTVPSSSLGTQTYICNVNHKPSNTKVDKKV[in this place human IgG1 Fc with changes]GGGGSGGGGSGGGGDCDIEGKDGKQYESVLMVSIDQLLDSMKEIGSNCLNNEFNFFKRHICDANKEGMFLFRAARKLRQFLKMNSTGDFDLHLLEVSEETTILLNCTGQVKGRKPAALGEAQPTKSLEENKSLKEQKKLNDLCFLKRLLQEIKTCWNKILMGTKEH,81.2
2,PD1(alt)-IL7-VAR21 (other) light: DIVLTQSPASLAVSLGQRAAISCRASKGVSTSGYSYLHWYQQKPGQSPKLLIYLASYLESGVPARFSGSGSGTDFTLNIHPVEEEDAATYYCQHSRDLPLTFGTGTKLELKRTVAAPSVFIFPPSDEQLKSGTASVVCLLNNFYPREAKVQWKVDNALQSGNSQESVTEQDSKDSTYSLSSTLTLSKADYEKHKVYACEVTHQGLSSPVTKSFNRGEC heavy 1: QVQLQQPGAELVKPGTSVKLSCKASGYTFTNYYMYWVKQRPGQGLEWIGGINPSNGGTNFNEKFKNKATLTVDSSSSTTYMQLSSLTSEDSAVYYCTRRDYRFDMGFDYWGQGTTLTVSSASTKGPSVFPLAPSSKSTSGGTAALGCLVKDYFPEPVTVSWNSGALTSGVHTFPAVLQSSGLYSLSSVVTVPSSSLGTQTYICNVNHKPSNTKVDKKVEPKSCDKTHTCPPCPAPEAAGGPSVFLFPPKPKDTLMISRTPEVTCVVVDVSHEDPEVKFNWYVDGVEVHNAKTKPREEQYNSTYRVVSVLTVLHQDWLNGKEYKCKVSNKALGAPIEKTISKAKGQPREPQVCTLPPSRDELTKNQVSLSCAVKGFYPSDIAVEWESNGQPENNYKTTPPVLDSDGSFFLVSKLTVDKSRWQQGNVFSCSVMHEALHNRFTQKSLSLSPG heavy 2: QVQLQQPGAELVKPGTSVKLSCKASGYTFTNYYMYWVKQRPGQGLEWIGGINPSNGGTNFNEKFKNKATLTVDSSSSTTYMQLSSLTSEDSAVYYCTRRDYRFDMGFDYWGQGTTLTVSSASTKGPSVFPLAPSSKSTSGGTAALGCLVKDYFPEPVTVSWNSGALTSGVHTFPAVLQSSGLYSLSSVVTVPSSSLGTQTYICNVNHKPSNTKVDKKV[in this place human IgG1 Fc with changes]GGGGSGGGGSGGGGDCDIEGKDGKQYESVLMVSIDQLLDSMKEIGSNCLNNEFNFFKRHICDANKEGMFLFRAARKLRQFLKMNSTGDFDLHLLKVSEETTILLNCTGQVKGRKPAALGEAQPTKSLEENKSLKEQKKLNDLCFLKRLLQEIKTCWNKILMGTKEH,7.5
3,PD1(alt)-IL7wt (other) light: DIVLTQSPASLAVSLGQRAAISCRASKGVSTSGYSYLHWYQQKPGQSPKLLIYLASYLESGVPARFSGSGSGTDFTLNIHPVEEEDAATYYCQHSRDLPLTFGTGTKLELKRTVAAPSVFIFPPSDEQLKSGTASVVCLLNNFYPREAKVQWKVDNALQSGNSQESVTEQDSKDSTYSLSSTLTLSKADYEKHKVYACEVTHQGLSSPVTKSFNRGEC heavy 1: QVQLQQPGAELVKPGTSVKLSCKASGYTFTNYYMYWVKQRPGQGLEWIGGINPSNGGTNFNEKFKNKATLTVDSSSSTTYMQLSSLTSEDSAVYYCTRRDYRFDMGFDYWGQGTTLTVSSASTKGPSVFPLAPSSKSTSGGTAALGCLVKDYFPEPVTVSWNSGALTSGVHTFPAVLQSSGLYSLSSVVTVPSSSLGTQTYICNVNHKPSNTKVDKKVEPKSCDKTHTCPPCPAPEAAGGPSVFLFPPKPKDTLMISRTPEVTCVVVDVSHEDPEVKFNWYVDGVEVHNAKTKPREEQYNSTYRVVSVLTVLHQDWLNGKEYKCKVSNKALGAPIEKTISKAKGQPREPQVCTLPPSRDELTKNQVSLSCAVKGFYPSDIAVEWESNGQPENNYKTTPPVLDSDGSFFLVSKLTVDKSRWQQGNVFSCSVMHEALHNRFTQKSLSLSPG heavy 2: QVQLQQPGAELVKPGTSVKLSCKASGYTFTNYYMYWVKQRPGQGLEWIGGINPSNGGTNFNEKFKNKATLTVDSSSSTTYMQLSSLTSEDSAVYYCTRRDYRFDMGFDYWGQGTTLTVSSASTKGPSVFPLAPSSKSTSGGTAALGCLVKDYFPEPVTVSWNSGALTSGVHTFPAVLQSSGLYSLSSVVTVPSSSLGTQTYICNVNHKPSNTKVDKKV[in this place human IgG1 Fc with changes]GGGGSGGGGSGGGGDCDIEGKDGKQYESVLMVSIDQLLDSMKEIGSNCLNNEFNFFKRHICDANKEGMFLFRAARKLRQFLKMNSTGDFDLHLLKVSEGTTILLNCTGQVKGRKPAALGEAQPTKSLEENKSLKEQKKLNDLCFLKRLLQEIKTCWNKILMGTKEH,1
